# From PubChem BioAssay AID1347417 (National Center for Advancing Translational Sciences (NCATS), 2020)
# Hit rate of the full screen: of about 120,000 compounds, about 5,300 (4.4%) were called active. Inconclusive results, whose numbers are uncertain, are shown with a selection of clear calls. The call rests on the fitted dose curve; in most records, active means well fitted inhibition curve with a large enough effect; inconclusive means small, poorly fitted or top-dose-only effect; inactive means no such curve, though single readings can be large or run the other way. Where the call is inconclusive, the potency comes from a doubtful curve fit.
# Assay: qHTS Primary assay for Inhibitors of Plasmodium falciparum Dd2 growth in vitro; further: nearly all actives have a fitted effect of over 65% in size
# Settings: P. falciparum Dd2 growth, SYBR Green, 72 h; series mostly up to 28.9 µM
# Method in brief: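 Readout: SYBR Green fluorescence, 485 nm excitation, 535 nm emission, after ~16 h lysis at 37C. Before that, Dd2-infected red cells (2.5% hematocrit) grew 72 h with compound, 29 uM top final concentration.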
# Potency means the concentration at half of the fitted maximal effect; tags describe the fitted curve by direction and shape.
row,SMILES,Potency
1,Cn1cnnc1CC1CCN(S(=O)(=O)c2ccccc2)CC1,inactive
2,NCC(=O)N1Cc2ccccc2CC2(CCCN(CC3CCCC3)C2)C1 (stereo unspecified),active: 7.94 µM
3,CCOC(=O)N1CCN(C(=O)c2cccc(CC3CCNCC3)c2)CC1,inactive
4,COc1ccc(CN2CCC3(C2)C(=NC2CCCC2)NC(=O)N3c2cccnc2)cc1 (stereo unspecified),"inconclusive: 1.12 µM [inhibitor, full curve, poor fit]"
5,Cc1ccc([S+](=O)([O-])N2CCC3(C2)C(=O)N(CCc2ccccc2)c2ccccc23)cc1 (stereo unspecified),"inconclusive: 17.8 µM [inhibitor, single point]"
6,O=C(Cn1c(=O)c2cccn2c2cccnc21)NCc1ccccc1F,"inconclusive: 0.0316 µM [inhibitor, full curve, poor fit]"
7,CCOc1ccc(-c2cnc(-c3cnc(CC)nc3)[nH]2)cc1OCC,active: 10 µM
8,CN1CCN(C(CNC(=O)C(=O)Nc2cccc(Cl)c2)c2ccc3c(c2)OCO3)CC1 (stereo unspecified),active: 7.08 µM
9,O=C(Cc1ccccc1Cl)N[C@@H]1CN(c2ncccn2)C[C@H]1CO,inactive
10,CC(C)(C)OC(=O)N1CCC(c2c(C(=O)N3CCN(C(=O)c4ccco4)CC3)cnn2-c2ccccc2Cl)CC1,active: 11.2 µM
11,CCNc1cc(N2CCC(CCC(=O)NCCN3CCCCCC3)CC2)ncn1,"inconclusive: 3.98 µM [inhibitor, single point]"
12,C[C@H]1[C@@H]2[C@@H](O)C([C@H](C)C(=O)NCCN3CCOCC3)CC[C@@]2(C)CC[C@@H]1NC(=O)c1cncnc1 (stereo partly specified),inactive
13,Cc1ccccc1C(=O)N1CCC[C@H]1c1nc(-c2ccc(F)cc2)no1,"inconclusive: 17.8 µM [inhibitor, single point]"
14,COc1cccc(CC(=O)N2CCCCCCN(C)C(=O)[C@H]3CCC[C@H]32)c1,"inconclusive: 7.94 µM [inhibitor, partial curve, poor fit]"
15,CN(C)c1ccc(CN2CCC3(C2)NC(=O)c2ccccc2CO3)cc1 (stereo unspecified),"inconclusive: 7.08 µM [inhibitor, partial curve, poor fit]"
16,O=C(Cc1cccc(F)c1)NC1CCN(c2ccc(F)cc2)C1=O (stereo unspecified),inactive
17,Cc1ccc(S(=O)(=O)c2nnn3c2nc(NCc2ccccc2Cl)c2sccc23)cc1,"inconclusive: 7.94 µM [inhibitor, partial curve]"
18,Oc1ccccc1CN1CCNc2cc(-c3ccccc3)ncc2C1,"inconclusive: 15.8 µM [inhibitor, single point]"
19,Cc1cc(C(=O)N2CCOc3ccc(CCC(N)=O)cc3C2)nn1C,inactive
20,CN(Cc1ccccc1)C(=O)C[C@@H]1CCNC[C@@H]1Cc1cc(COc2ccccc2)on1,"inconclusive: 3.55 µM [inhibitor, partial curve, poor fit]"
21,CCCCNC(=O)C(CC)Sc1nc2ccccc2c(=O)n1CCc1ccc(OC)c(OC)c1 (stereo unspecified),"inconclusive: 7.94 µM [inhibitor, partial curve, poor fit]"
22,N#Cc1cccc(-c2cn3c(n2)N(C(=O)CC2CCCC2)CCC3)c1,"inconclusive: 1.58 µM [inhibitor, full curve, poor fit]"

row,SMILES,Potency
1,COc1ccc(-c2cc(N3CCC(NC(=O)c4ccc(Cl)s4)CC3)n[nH]2)cc1,"inconclusive: 2.82 µM [inhibitor, partial curve, poor fit]"
2,CC(C)(C)NC(=O)c1oc2ccccc2c1NC(=O)c1ccc(F)cc1,"inconclusive: 17.8 µM [inhibitor, single point]"
3,FC(F)(F)Oc1cccc(CN2CCC[C@H]2c2nc(-c3ccc(N4CCOCC4)nc3)no2)c1,inactive
4,CCc1ccccc1NC(=O)c1cc2c(Cl)nc3ccccc3c2s1,"inconclusive: 10 µM [inhibitor, partial curve]"
5,O=C1NCCOCCN(C(=O)Cc2c[nH]c3ccccc23)[C@H]2CCC[C@@H]12,"inconclusive: 12.6 µM [inhibitor, single point]"
6,CCS(=O)(=O)N1CC(F)(F)C[C@H]1c1nc(CCOC)no1,"inconclusive: 0.251 µM [inhibitor, full curve, poor fit]"
7,CC(C)N(C)Cc1nnnn1CC(=O)N1CCC(O)(c2cccnc2)CC1,"inconclusive: 0.398 µM [inhibitor, full curve, poor fit]"
8,CC1CCC2(CC1)NC(=O)N(CC(=O)Nc1ccc(Cl)cc1)C2=O (stereo unspecified),"inconclusive: 0.126 µM [inhibitor, full curve, poor fit]"
9,Cc1cc(C(=O)NC[C@@H]2CC[C@H]3C[C@@H]2C3(C)C)ccc1Cl,"inconclusive: 22.4 µM [inhibitor, single point]"
10,CC[C@H]1CN(C(=O)Nc2cccc(C(F)(F)F)c2)CC[C@H]1CC(=O)NCc1ccc(OC)c(OC)c1,inactive
11,Fc1ccc(N2CCN(Cc3cccn3-c3nnc(N4CCN(C5CCCCC5)CC4)s3)CC2)cc1,"inconclusive: 1.78 µM [inhibitor, full curve]"
12,COC(=O)c1ccc(NC(=O)c2c(C)oc3ccn(Cc4ccc(F)cc4)c(=O)c23)cc1,"inconclusive: 1.12 µM [inhibitor, partial curve, poor fit]"
13,COCCc1nncn1C1CCN(S(=O)(=O)c2ccccc2C(F)(F)F)CC1,inactive
14,COc1ccccc1N=c1scc(-c2ccc(S(=O)(=O)N3CCCC3)cc2)n1C,active: 10 µM
15,Cc1ccc(CNC(=O)Cn2ccn3nc4c(c3c2=O)CCCC4)cc1,inactive
16,CCc1ccc(C(=O)N2CCCN(S(C)(=O)=O)c3ccccc32)cc1,"inconclusive: 17.8 µM [inhibitor, single point]"
17,O=C(Cc1ccccc1)NCCC1CCN(C(=O)Nc2ccccc2)CC1,"inconclusive: 12.6 µM [inhibitor, single point]"
18,CC(=O)Nc1ccc(Nc2ncnc3c2c(-c2ccccc2)cn3-c2ccc(C)c(Cl)c2)cc1,active: 7.08 µM
19,Cc1ccc(C(=O)N2CCC3(CC2)c2[nH]c4ccccc4c2CCN3C)cn1,"inconclusive: 5.62 µM [inhibitor, single point]"
20,Cc1cccc(C)c1NC(=O)CCS(=O)(=O)c1cccc2nonc12,inactive
21,Cc1ccc(-c2nnc(C3CN(C(=O)c4ccco4)CC34CCOCC4)o2)cc1 (stereo unspecified),inactive
22,COc1ccc(-c2cn(C[C@H]3CC4CCN3C[C@@H]4C(=O)NCc3ccc4c(c3)OCO4)nn2)cc1 (stereo partly specified),"inconclusive: 17.8 µM [inhibitor, partial curve, poor fit]"

row,SMILES,Potency
1,CCOC(=O)c1ccc(NC2=CC(c3ccc(F)cc3)N(c3ccc(C(=O)OCC)cc3)C2=O)cc1 (stereo unspecified),"inconclusive: 0.447 µM [inhibitor, full curve]"
2,CCCOc1cccc(C(=O)Nc2ccc(-c3cc4ccccc4oc3=O)c(C)c2)c1,"inconclusive: 1.41 µM [inhibitor, full curve, poor fit]"
3,COc1ccccc1CC(=O)N1CCCN(CCc2ccccc2)c2ccccc21,active: 7.94 µM
4,O=C(Cc1ccccc1F)NC1CCN(c2cc(-c3ccccc3)[nH]n2)CC1,inactive
5,COc1ccccc1C(=O)N1C[C@@H]2CCCN3CCC[C@@H]([C@H]23)[C@H]1CCCC(=O)N1CCOCC1,inactive
6,COc1ccc(-c2noc(CC3CCN(C(=O)CC4CCCCC4)CC3)n2)cc1,"inconclusive: 11.2 µM [inhibitor, partial curve, poor fit]"
7,COc1cccc(-c2nc3c(c(SCC(=O)Nc4cc(C)ccc4C)n2)Cc2c(CO)cnc(C)c2O3)c1,inactive
8,CC(C)OCCCNC(=O)CSc1c2c(nc3ccc(Cl)cc13)CCCC2,"inconclusive: 10 µM [inhibitor, single point]"
9,COc1ccc(C(=O)N2CCN3C(=O)N(CC(N)=O)C(=O)[C@@H]3C2)cc1,inactive
10,O=C1NC2(CCN(Cc3ccc(OC(F)(F)F)cc3)CC2)COc2ccccc21,active: 2.24 µM
11,c1ccc2ncc(CNC[C@H]3Cn4c(-c5ccc6c(c5)OCCO6)cnc4CO3)cc2c1,inactive
12,Cc1nn2c(c1-c1ccccc1C(C)C)N(C(=O)c1cccc(N(C)C)c1)CCC2,"inconclusive: 31.6 µM [inhibitor, single point]"
13,CCOC(=O)c1cnc2ccc(Cl)cc2c1Nc1ccc(OCC)cc1,"inconclusive: 17.8 µM [inhibitor, single point]"
14,CCOc1cc(C2Sc3ccccc3NC3=C2C(=O)c2ccccc23)ccc1O (stereo unspecified),active: 11.2 µM
15,COc1ccc(C(=O)Nc2ccccc2-c2nc3ccccc3s2)c(OC)c1,"inconclusive: 17.8 µM [inhibitor, single point]"
16,CCc1noc(-c2cn(C3CCN(C(=O)c4cccc(F)c4)CC3)nn2)n1,"inconclusive: 11.2 µM [inhibitor, single point]"
17,COc1ccccc1N1CCN(C(=O)C[C@@H]2O[C@H](CNC(=O)c3ccc(N(C)C)cc3)[C@@H](O)[C@H]2O)CC1,inactive
18,COc1cccc(CN2CCOC3(CCN(Cc4ccc(F)cc4F)CC3)C2=O)c1,"inconclusive: 0.224 µM [inhibitor, full curve, poor fit]"
19,Cc1ccc(Cn2c(C3CCN(C(=O)c4ccc(C#N)cc4)CC3)n[nH]c2=O)cc1,inactive
20,CN(C)Cc1cc(C[C@@H]2C[C@H](N(Cc3ccco3)Cc3ccco3)C2(C)C)no1,"inconclusive: 15.8 µM [inhibitor, single point]"
21,CCOC(=O)N1CCc2c(sc3c2c(=O)n(Cc2ccccc2)c(=O)n3Cc2ccc(C)cc2)C1,active: 2.51 µM
22,Cn1nnc(-c2cccc(NC(=O)C[C@H]3NC(=O)c4ccccc4NC3=O)c2)n1,inactive
